PubChem BioAssay (Tox21)
The inconclusive results got no clear call from the source; some entries with a clear call stand among them for comparison. Entries that show only a call come without a potency. For some assays here: Where the call is inconclusive, the potency comes from a doubtful curve fit. Calls of active or inactive are those of the source. Unless noted, calls follow the shape of the full dose curve.

Tests used:
[1] = molecular target: Peroxisome proliferator-activated receptor gamma (Homo sapiens) (UniProt P37231); assay: qHTS assay to identify small molecule antagonists of the peroxisome proliferator-activated receptor gamma (PPARg) signaling pathway (AID 743191); conditions: HEK293H PPARg-UAS-bla, beta-lactamase ratio, antagonist, 17 h; ratio activity, negative = inhibition: at 62.6 µM (top of the series) unless noted; also: nearly all actives have a fitted effect of over 30% in size; also: potency is read from the fitted curve at half-maximal effect
Summary of the method: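 Beta-lactamase reporter under UAS control in HEK293H PPARg-bla cells; compound treatment 17 h at 37C. Read-out: fluorescence intensity after 1 h room-temperature incubation with LiveBLAzer B/G FRET substrate.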

[2] = qHTS assay for small molecule agonists of the antioxidant response element (ARE) signaling pathway (AID 743202; active = well fitted activation curve with a large enough effect in the signal ratio in the repeat runs, not every such curve was filed as active; inconclusive = weak or mixed curves, or effect the other way; inactive = no such curve, though single readings can be large or run the other way; the % refers to the signal ratio; also: potency is read from the fitted curve at half-maximal effect); conditions: HepG2 ARE-bla reporter, beta-lactamase FRET, 16 h; activation: at 73.3 µM (top of the series) unless noted
Summary of the method: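 Quantitative high-throughput format in HepG2 cells bearing an integrated ARE-beta-lactamase reporter. Compound exposure lasted 16 h at 37 C, and fluorescence was read 2 h after adding LiveBLAzer B/G substrate at room temperature.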

[3] = molecular target: Bile acid receptor (Homo sapiens) (UniProt Q96RI1); assay: qHTS assay to identify small molecule antagonists of the farnesoid-X-receptor (FXR) signaling pathway (AID 743217; active = well fitted inhibition curve with a large enough effect in the signal ratio in the repeat runs, not every such curve was filed as active; inconclusive = weak or mixed curves, or effect the other way; inactive = no such curve, though single readings can be large or run the other way; the % refers to the signal ratio; also: potency is read from the fitted curve at half-maximal effect); conditions: HEK293T FXR-UAS-bla, beta-lactamase ratio, CDCA-stimulated, 16 h; activity change, negative = inhibition: at 62.6 µM (top of the series) unless noted
Summary of the method: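 Beta-lactamase reporter under UAS control in HEK 293T cells; compound exposure 16 h at 37 °C in the presence of chenodeoxycholic acid (50 uM final); signal from B/G FRET substrate after 2 h at room temperature.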

[4] = qHTS assay to identify small molecule agonists of the farnesoid-X-receptor (FXR) signaling pathway - cell viability counter screen (AID 743218; active = well fitted curve in the direction sought with a large enough effect in the repeat runs; inconclusive = weak or mixed curves; inactive = no such curve, though single readings can be large; an effect the other way counts as inactive or inconclusive; also: nearly all actives have a fitted effect of over 45% in size; also: potency is read from the fitted curve at half-maximal effect); conditions: FXR-bla HEK293T viability, CellTiter-Glo luminescence, 16 h; viability change, negative = cytotoxic: at 62.6 µM (top of the series) unless noted
Summary of the method: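 In GeneBLAzer FXR-UAS-bla HEK 293T cells, compounds act for 16 h at 37 C. Cell viability is then scored in the reporter wells by CellTiter-Glo, 30 min at RT, luminescence.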

[5] = molecular target: Vitamin D3 receptor (Homo sapiens) (UniProt P11473); assay: qHTS assay to identify small molecule agonists of the vitamin D receptor (VDR) signaling pathway (AID 743222); conditions: HEK293T VDR-UAS-bla, beta-lactamase FRET ratio, 16 h; activation: at 63.5 µM (top of the series) unless noted; also: potency is read from the fitted curve at half-maximal effect
Summary of the method: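 Agonist activity measured in VDR-bla reporter cells. Exposure 16 h, 37C, 5% CO2; detection by B/G FRET substrate, 2 h RT.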

[6] = molecular target: Vitamin D3 receptor (Homo sapiens) (UniProt P11473); assay: qHTS assay to identify small molecule antagonists of the vitamin D receptor (VDR) signaling pathway (AID 743223; active = well fitted inhibition curve with a large enough effect in the signal ratio in the repeat runs, not every such curve was filed as active; inconclusive = weak or mixed curves, or effect the other way; inactive = no such curve, though single readings can be large or run the other way; the % refers to the signal ratio; also: potency is read from the fitted curve at half-maximal effect); conditions: VDR-UAS-bla HEK293T, beta-lactamase FRET ratio, 16 h; activity change, negative = inhibition: at 61 µM (top of the series) unless noted
Summary of the method: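 Antagonist mode: compound added to VDR-bla cells alongside agonist 1alpha,25-dihydroxyvitamin D3 (3 nM final), incubation 16 h at 37C. Read-out is LiveBLAzer FRET fluorescence, 2 h at room temperature.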

[7] = molecular target: Peroxisome proliferator-activated receptor delta (Homo sapiens) (UniProt Q03181); assay: qHTS assay to identify small molecule agonists of the peroxisome proliferator-activated receptor delta (PPARd) signaling pathway (AID 743212); conditions: HEK293H PPARd-UAS-bla, beta-lactamase FRET ratio, 17 h; activation: at 62.6 µM (top of the series) unless noted
Summary of the method: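 HEK293H PPARd-bla cells; 5 h preincubation 37 C/5% CO2; compound (DMSO) 37 C; LiveBLAzer B/G FRET substrate 2 h RT; fluorescence intensity.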

[8] = qHTS assay to identify small molecule antagonists of the peroxisome proliferator-activated receptor delta (PPARd) signaling pathway - cell viability counter screen (AID 743213; active = well fitted curve in the direction sought with a large enough effect in the repeat runs; inconclusive = weak or mixed curves; inactive = no such curve, though single readings can be large; an effect the other way counts as inactive or inconclusive; also: nearly all actives have a fitted effect of over 50% in size; also: potency is read from the fitted curve at half-maximal effect); conditions: PPARd-bla HEK293H viability, CellTiter-Glo luminescence, 17 h; viability change, negative = cytotoxic: at 62 µM (top of the series) unless noted
Summary of the method: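 PPARd-bla HEK293H cells were treated with compounds plus agonist L165041 (300 nM final) for 17 h at 37 C. Viability was then read in the same wells by CellTiter-Glo luminescence after 30 min at room temperature.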

[9] = qHTS assay to identify small molecule agonists of the peroxisome proliferator-activated receptor delta (PPARd) signaling pathway - cell viability counter screen (AID 743211; active = well fitted curve in the direction sought with a large enough effect in the repeat runs; inconclusive = weak or mixed curves; inactive = no such curve, though single readings can be large; an effect the other way counts as inactive or inconclusive; also: nearly all actives have a fitted effect of over 55% in size; also: potency is read from the fitted curve at half-maximal effect); conditions: PPARd-bla HEK293H viability, CellTiter-Glo luminescence, 17 h; activity change, negative = cytotoxicity: at 62.6 µM (top of the series) unless noted
Summary of the method: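 Viability was measured as CellTiter-Glo luminescence (30 min, room temperature) in the same wells as the beta-lactamase readout. GeneBLAzer PPARd UAS-bla HEK293H cells received compound after 5 h plating and were incubated 17 h at 37 C.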

[10] = molecular target: Bile acid receptor (Homo sapiens) (UniProt Q96RI1); assay: qHTS assay to identify small molecule agonists of the farnesoid-X-receptor (FXR) signaling pathway (AID 743220; active = well fitted activation curve with a large enough effect in the signal ratio in the repeat runs, not every such curve was filed as active; inconclusive = weak or mixed curves, or effect the other way; the % refers to the signal ratio); conditions: HEK293T FXR-UAS-bla, beta-lactamase FRET ratio, 16 h; activation: at 62.6 µM (top of the series) unless noted
Summary of the method: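 Beta-lactamase reporter under UAS control in GeneBLAzer FXR HEK 293T cells (5000/well) measured with LiveBLAzer FRET substrate after 2 h at room temperature. Compound exposure lasted 16 h at 37C.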

[11] = molecular target: Peroxisome proliferator-activated receptor delta (Homo sapiens) (UniProt Q03181); assay: qHTS assay to identify small molecule antagonists of the peroxisome proliferator-activated receptor delta (PPARd) signaling pathway (AID 743215; active = well fitted inhibition curve with a large enough effect in the signal ratio in the repeat runs, not every such curve was filed as active; inconclusive = weak or mixed curves, or effect the other way; inactive = no such curve, though single readings can be large or run the other way; the % refers to the signal ratio;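 also: cells stimulated with agonist L165041 at 300 nM final during compound exposure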); conditions: HEK293H PPARd-UAS-bla, beta-lactamase FRET ratio, antagonist, 17 h; ratio activity, negative = inhibition: at 62 µM (top of the series) unless noted
Summary of the method: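 Antagonist-mode beta-lactamase reporter screen: HEK293H cells with UAS-bla under PPARd control, stimulated by 300 nM L165041 (final) alongside test compound for 17 h at 37 C, then FRET fluorescence after 2 h substrate incubation.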

[12] = qHTS assay to identify small molecule antagonists of the farnesoid-X-receptor (FXR) signaling pathway - cell viability counter screen (AID 743221; active = well fitted cell-killing curve with a large enough effect in the repeat runs, not every such curve was filed as active; inconclusive = weak or mixed curves, or effect the other way; inactive = no such curve, though single readings can be large or run the other way; also: nearly all actives have a fitted effect of over 50% in size); conditions: FXR-bla HEK293T viability, CellTiter-Glo luminescence, 16 h; activity change, negative = cytotoxicity: at 62.6 µM (top of the series) unless noted
Summary of the method: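 Cytotoxicity counter screen run in the FXR-bla reporter wells: HEK 293T cells exposed to compound with 50 uM (final) chenodeoxycholic acid for 16 h, 37 C, then viability measured by CellTiter-Glo luminescence after 30 min, room temperature.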

[13] = qHTS assay to identify small molecule agonists of the vitamin D receptor (VDR) signaling pathway - cell viability counter screen (AID 743224; active = well fitted curve in the direction sought with a large enough effect in the repeat runs; inconclusive = weak or mixed curves; inactive = no such curve, though single readings can be large; an effect the other way counts as inactive or inconclusive; also: potency is read from the fitted curve at half-maximal effect; nearly all actives have a fitted effect of over 50% in size); conditions: VDR-bla HEK293T viability, CellTiter-Glo luminescence, 16 h; activity change, negative = cytotoxicity: at 62.6 µM (top of the series)
Summary of the method: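 VDR-bla cell line, quantitative HTS format; 16 h compound incubation (37C, 5% CO2); ATP-based CellTiter-Glo luminescence measured in the reporter assay wells.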

[14] = qHTS assay for small molecule activators of the heat shock response signaling pathway (AID 743210; active = well fitted activation curve with a large enough effect in the signal ratio in the repeat runs, with a control signal flat, not every such curve was filed as active; inconclusive = weak or mixed curves; the % refers to the signal ratio; also: potency is read from the fitted curve at half-maximal effect;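 as to activation: HeLa cells with beta-lactamase reporter driven by heat shock elements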); conditions: HeLa HSE-bla reporter, beta-lactamase ratio, 5 h; activation: at 62.6 µM (top of the series) unless noted
Summary of the method: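 HeLa HSE-bla cells, overnight plating; cpd in DMSO 5 h, 37 C; LiveBLAzer B/G FRET substrate 2.5 h RT; fluorescence intensity read.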
Tags tell the direction and shape of the fitted curve or compound fluorescence and quenching.

Sequence of UniProt Q03181 (Q03181 whole entry, looked up): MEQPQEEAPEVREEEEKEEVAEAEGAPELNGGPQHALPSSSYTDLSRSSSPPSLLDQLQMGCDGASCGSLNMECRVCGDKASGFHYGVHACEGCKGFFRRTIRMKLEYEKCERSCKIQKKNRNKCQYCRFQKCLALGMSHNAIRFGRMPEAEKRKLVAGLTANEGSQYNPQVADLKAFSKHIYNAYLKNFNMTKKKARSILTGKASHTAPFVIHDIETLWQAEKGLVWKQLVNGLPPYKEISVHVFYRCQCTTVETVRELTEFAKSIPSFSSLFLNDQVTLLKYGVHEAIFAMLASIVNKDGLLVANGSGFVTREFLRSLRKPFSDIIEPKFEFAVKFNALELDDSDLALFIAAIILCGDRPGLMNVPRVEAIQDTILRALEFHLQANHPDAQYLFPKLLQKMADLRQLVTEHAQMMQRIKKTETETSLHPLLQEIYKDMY
Sequence of UniProt Q96RI1 (Q96RI1 whole entry, looked up): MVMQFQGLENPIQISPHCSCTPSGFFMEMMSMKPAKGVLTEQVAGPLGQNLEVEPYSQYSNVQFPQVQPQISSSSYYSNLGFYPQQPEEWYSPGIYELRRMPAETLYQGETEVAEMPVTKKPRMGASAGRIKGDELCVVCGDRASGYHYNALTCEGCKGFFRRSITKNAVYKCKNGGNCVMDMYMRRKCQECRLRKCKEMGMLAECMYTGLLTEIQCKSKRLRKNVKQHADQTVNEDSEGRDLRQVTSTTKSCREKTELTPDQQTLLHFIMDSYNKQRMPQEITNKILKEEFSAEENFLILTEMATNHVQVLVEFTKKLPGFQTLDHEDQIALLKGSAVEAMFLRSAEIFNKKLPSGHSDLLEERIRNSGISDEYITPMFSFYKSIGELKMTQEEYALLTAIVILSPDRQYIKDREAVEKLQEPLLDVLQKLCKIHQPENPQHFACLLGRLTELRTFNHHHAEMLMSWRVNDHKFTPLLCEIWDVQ
Sequence of UniProt P37231 (P37231 whole entry, looked up): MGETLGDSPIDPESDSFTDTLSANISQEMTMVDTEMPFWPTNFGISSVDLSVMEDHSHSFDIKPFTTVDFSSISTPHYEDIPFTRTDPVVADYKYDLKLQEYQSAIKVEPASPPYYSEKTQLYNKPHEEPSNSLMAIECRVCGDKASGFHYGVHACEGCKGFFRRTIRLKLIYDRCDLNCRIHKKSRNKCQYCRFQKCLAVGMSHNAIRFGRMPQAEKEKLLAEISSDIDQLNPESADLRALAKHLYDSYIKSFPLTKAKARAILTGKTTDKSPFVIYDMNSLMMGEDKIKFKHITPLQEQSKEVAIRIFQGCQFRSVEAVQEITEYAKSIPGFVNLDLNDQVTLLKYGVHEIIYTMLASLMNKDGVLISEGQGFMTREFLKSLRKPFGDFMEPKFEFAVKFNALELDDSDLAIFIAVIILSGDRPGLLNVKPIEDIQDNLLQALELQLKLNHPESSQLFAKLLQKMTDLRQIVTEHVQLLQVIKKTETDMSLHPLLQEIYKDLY
Sequence of UniProt P11473 (P11473 whole entry, looked up): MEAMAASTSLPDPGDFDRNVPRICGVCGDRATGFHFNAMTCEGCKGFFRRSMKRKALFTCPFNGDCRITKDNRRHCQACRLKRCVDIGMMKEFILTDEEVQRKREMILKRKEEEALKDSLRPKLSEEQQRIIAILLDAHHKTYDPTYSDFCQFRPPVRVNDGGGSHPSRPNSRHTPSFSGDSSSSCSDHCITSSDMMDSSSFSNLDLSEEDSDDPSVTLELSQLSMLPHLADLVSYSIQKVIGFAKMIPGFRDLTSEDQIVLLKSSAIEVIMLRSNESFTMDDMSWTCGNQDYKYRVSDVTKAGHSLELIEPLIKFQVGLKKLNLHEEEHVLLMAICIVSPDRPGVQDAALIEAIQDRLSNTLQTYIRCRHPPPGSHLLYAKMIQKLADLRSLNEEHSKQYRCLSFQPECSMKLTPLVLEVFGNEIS

With `Oc1ccc(Sc2ccc(O)cc2)cc1` the Potency [1] was active: 16.2 µM, the Potency [2] was active: 22.8 µM and the activity change, negative = inhibition [3] was inconclusive: -25.5%. The Potency [4] was “inactive”, the Potency [5] was “inactive” and the activity change, negative = inhibition [6] was inconclusive: 5.14%.

With `N#CC1(c2ccc(F)cc2)CCC(=O)CC1` the Potency [1] was “inactive”, the Potency [2] was “inactive” and the Potency [3] was “inactive”.

For `O=C(Cn1ccnc1[N+](=O)[O-])NCCO`, the Potency [1] was “inactive”, the Potency [2] was “inactive” and the Potency [3] was “inactive”.

For `CC(C)(C)NCC(O)c1ccc(O)c(CO)c1` (stereo not drawn), the Potency [1] was “inactive”, the Potency [2] was “inactive” and the Potency [7] was “inactive”. For the same compound, the Potency [8] was “inactive” and the Potency [4] was “inactive”.

With `Nc1nc(-c2ccccc2)cs1` the ratio activity, negative = inhibition [1] was inconclusive: -21.6%, the Potency [2] was inconclusive: 12.2 µM [rising, full curve] and the Potency [9] was “inactive”. The Potency [3] was “inactive”, the Potency [10] was “inactive” and the Potency [6] was “inactive”.

For `OCC(O)CN1CCN(c2ccccc2)CC1` (stereo not drawn), the Potency [1] was “inactive”, the Potency [2] was “inactive” and the Potency [11] was “inactive”. For the same compound, the Potency [12] was “inactive” and the Potency [13] was inconclusive: 23.7 µM [rising, single point].

With `CC(=O)Oc1ccc2c(c1)CC[C@@H]1[C@@H]2CC[C@]2(C)[C@@H](O)CC[C@@H]12` the ratio activity, negative = inhibition [1] was inconclusive: 2.11%, the activation [2] was inconclusive: 14.7% and the Potency [3] was active: 29.8 µM. For the same compound, the Potency [10] was “inactive”.

With `CO/N=C(/C(=O)N[C@@H]1C(=O)N2C(C(=O)O)=C(COC(N)=O)CS[C@H]12)c1ccco1` the ratio activity, negative = inhibition [1] was inconclusive: 2.67%, the activation [2] was inconclusive: 31.1% and the Potency [14] was inconclusive: 57.8 µM [activator]. For the same compound, the Potency [5] was “inactive” and the Potency [6] was “inactive”.

In the case of `CCOC(=O)C1OC1c1ccccc1` (stereo not drawn), the ratio activity, negative = inhibition [1] is reported as inconclusive: 3.2%, the Potency [2] is reported as inconclusive: 68.6 µM [rising, single point] and the Potency [4] is reported as inconclusive: 14.1 µM [rising, partial curve, poor fit]. For the same compound, the Potency [5] was inconclusive: 49 µM [rising, partial curve].

In the case of `C=CCc1ccccc1OCC(O)CNC(C)C` (stereo not drawn), the ratio activity, negative = inhibition [1] is reported as inconclusive: -2.26%, the Potency [2] is reported as inconclusive: 26.6 µM [falling, partial curve, poor fit] and the Potency [14] is reported as “inactive”. The Potency [5] was “inactive”.

With `COc1cc(C(=O)NC2CCCNC2)cc(OC)c1OC` (stereo not drawn) the Potency [1] was “inactive”, the Potency [2] was “inactive” and the Potency [8] was inconclusive: 2.98 µM [cytotoxic, single point]. The Potency [3] was “inactive”.

With `CSc1cnc(C)cn1` the Potency [1] was “inactive”, the activation [2] was inconclusive: 26.1% [at 94.8 µM] and the Potency [4] was “inactive”. For the same compound, the Potency [12] was “inactive”.

With `C=CC(C)(CCC=C(C)C)OC(=O)CC(C)C` (stereo not drawn) the Potency [1] was “inactive”, the activation [2] was inconclusive: 21.6% and the Potency [12] was “inactive”. For the same compound, the Potency [6] was inconclusive: 2.19 µM [activator, full curve, poor fit].

In the case of `Cc1ccsc1/C=C/C1=NCCCN1C`, the ratio activity, negative = inhibition [1] is reported as inconclusive: -3.01%, the Potency [2] is reported as “inactive” and the Potency [11] is reported as “inactive”. The viability change, negative = cytotoxic [4] was inconclusive: 3.78% [cytotoxic].

With `CC(C)CCCCCOC(=O)CS` the Potency [1] was “inactive”, the Potency [2] was inconclusive: 24.3 µM [falling, full curve] and the Potency [8] was “inactive”.

With `CN(C/C=C/c1ccccc1)Cc1cccc2ccccc12` the ratio activity, negative = inhibition [1] was inconclusive: -3.81%, the Potency [2] was “inactive” and the Potency [9] was inconclusive: 26.6 µM [cytotoxic, partial curve]. For the same compound, the Potency [8] was inconclusive: 0.0237 µM [cytotoxic, full curve, poor fit], the Potency [3] was inconclusive: 23.7 µM [inhibitor, partial curve] and the Potency [4] was inconclusive: 37.6 µM [cytotoxic, single point]. For the same compound, the Potency [13] was active: 26.6 µM.

With `C=C(C)CCCC(C)CCO` (stereo not drawn) the Potency [1] was inconclusive: 17.4 µM [activator, partial curve, poor fit], the activation [2] was inconclusive: 13% and the Potency [9] was inconclusive: 49 µM [cytotoxic, single point].

With `CCCCCCCCO[C@@H]1O[C@H](CO)[C@@H](O)[C@H](O)[C@H]1O` the Potency [1] was “inactive”, the Potency [2] was “inactive” and the Potency [7] was “inactive”. For the same compound, the ratio activity, negative = inhibition [11] was inconclusive: 10.7% and the Potency [6] was inconclusive: 30.9 µM [activator, partial curve, poor fit].

In the case of `CC(CNC1CCCCC1)OC(=O)c1ccccc1` (stereo not drawn), the ratio activity, negative = inhibition [1] is reported as inconclusive: -8.68%, the Potency [2] is reported as “inactive” and the Potency [11] is reported as “inactive”. The activity change, negative = inhibition [3] was inconclusive: -6.87%.
